{"source": "patent US20200062696A1", "about": "“COMPOSITIONS AND METHODS FOR INHIBITING RETICULON 4” (THE REGENTS OF THE UNIVERSITY OF CALIFORNIA, priority 2017, published 2020)", "key": {"U2OS osteosarcoma cells": {"test_system": "U2OS osteosarcoma cells", "assay": "Serum-free cell survival of U2OS cells", "type": "cell-based", "conditions": "50 μM, 48 h", "procedure": "FIGS. 11A-11C. DKM 3-30 and analogs. (FIG. 11A) Structures of DKM 3-30 and analogs. (FIG. 11B) Gel-based ABPP analysis showing competition side-by-side competition studies of DKM 3-30, YP 1-46, and AMR 1-125 against IA-rhodamine labelling of pure human RTN4. Shown are the 50% inhibitory concentration (IC50) values for each compound. (FIG. 11C) Serum-free cell survival of U2OS (48 h) or SW620 (24 h) cells treated with DMSO vehicle or each compound (50 μM). Data in (C) are presented as mean±sem. Significance is expressed as *p<0.001 compared to vehicle-treated controls.\nCell Culture. SW620 cells were purchased from ATCC. SW620 cells were grown in L-15 media with 10% fetal bovine serum (FBS) in ambient CO2. U2OS cells were grown in DMEM media supplemented with 10% FBS at 37° C. with 5% CO2.\nSurvival and Proliferation Assays. Cells were plated the evening before the experiment, and allowed to adhere overnight. For serum-free cell survival assays, cells were plated in media not containing FBS. For cell proliferation assays, cells were plated in regular media. For the chemical genetics screen, cells were treated with either DMSO or the cysteine-reactive fragment for 48 h and cell viability was assessed by Hoescht stain using our previously described methods"}, "GFP-expressing MEF cells": {"test_system": "GFP-expressing MEF cells", "assay": "Apoptosis (propidium iodine and Annexin-V, flow cytometry) in GFP-expressing MEF cells", "type": "cell-based, mouse", "conditions": "DKM 3-30 50 μM, 0, 8 or 16 h", "procedure": "FIG. 12. Effect of DKM 3-30 in Mouse Embryonic Fibroblast (MEF) cells expressing human RTN4. C1101 in human RTN4 is instead a serine in mouse RTN4. […] GFP or RTN4-GFP expressing MEF cells were treated with DKM 3-30 (50 μM) for 0, 8, or 16 h and apoptotic cells (propidium iodine positive and Annexin-V positive) were assessed by flow cytometry. Data are presented as mean±sem. Significance is expressed as *p<0.05 compared to 0 h time-point."}}, "data": [{"molecule": "C=CC(=O)Nc1ccc(Oc2ccc(Cl)cc2)cc1", "note": "[DKM 3-30, N-(4-(4-chlorophenoxy)phenyl)acrylamide]", "values": [{"measurement": "cell survival in U2OS cells", "setting": "U2OS osteosarcoma cells", "value": "impairs osteosarcoma cell survival"}, {"measurement": "viability / apoptosis in GFP-expressing MEF cells", "setting": "GFP-expressing MEF cells", "value": "does not show viability impairments"}]}]}
